Measured values: PubChem BioAssay AID504706 (National Center for Advancing Translational Sciences (NCATS), 2011)
The whole screen tested about 320,000 compounds, of which about 200 (0.062%) were called active. This list was built around the results that the source calls inconclusive (neither active nor inactive); the mix of calls is not that of the screen. Calls come from the whole dose curve; as a rule, active = well fitted activation curve with a large enough effect; inconclusive = small, poorly fitted or top-dose-only effect; inactive = no such curve, though single readings can be large or run the other way. No potency is given beside an inconclusive call; the fits are too rough.

Assay: qHTS assay for re-activators of p53 using a Luc reporter; note: nearly all actives have a fitted effect of over 45% in size
Conditions: H1299 p53-A138V BP100-luciferase reporter, luminescence, 24 h; series mostly up to 92.2 µM
Outline: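 p53-null H1299 cells stably carrying temperature-sensitive p53-A138V and a BP100-luciferase reporter were pinned with compounds (4-point, 1:5 series) and held 24 hrs at 37 deg C. Luminescence was read 10 min after detection reagent.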
Potency is the fitted concentration of half-maximal effect; tags give direction and shape of the fitted curve.

SMILES | Potency
Clc1ccc(-c2noc(CSc3nnc(-c4ccncc4)n3-c3ccccc3)n2)cc1 | inactive
Cc1c(Cl)cccc1NC(=O)c1cc(C2CC2)on1 | inconclusive [activator, partial curve, poor fit]
COc1ccc2nc(C(F)(F)Cl)c(C#N)c(N)c2c1 | inconclusive [activator, single point]
CN(C)c1ccc(NC(=O)/C=C/c2c(Cl)cccc2Cl)cc1 | inconclusive [activator, partial curve, poor fit]
O=C(CCC1N=C2c3ccccc3N=C(SCc3cccc(Cl)c3)N2C1=O)NCc1ccco1 (centres undefined) | inactive
NC(=O)c1ccccc1NC(=O)CCc1ccccc1 | inconclusive [activator, partial curve, poor fit]
c1ccc(-c2cc3ncccc3cn2)cc1 | inconclusive [activator, partial curve, poor fit]
O=C(Nc1nccs1)C1CCN(S(=O)(=O)c2ccc3c(c2)OCCCO3)CC1 | inconclusive [activator, single point]
CC(C)C(=O)N/N=C/c1ccc(OCc2ccccc2)cc1 | inactive
Cc1cc(C)c2nc(NNC(=O)c3ccc(S(=O)(=O)N4CC(C)CC(C)C4)cc3)sc2c1 (centres undefined) | inconclusive [activator, partial curve, poor fit]
CC1(C)NC(=O)N(CC(=O)N2CCN(S(=O)(=O)c3ccccc3C(F)(F)F)CC2)C1=O | inconclusive [activator, partial curve, poor fit]
CCCCN(C(=O)c1cccc(S(=O)(=O)N2CC(C)OC(C)C2)c1)c1c(N)n(CC(C)C)c(=O)[nH]c1=O (centres undefined) | inactive
Cc1nc(Sc2nnnn2C)c2c3c(sc2n1)CCC3 | inconclusive [activator, partial curve, poor fit]
C/C(=N\OCc1nc2ccccc2c(=O)n1/N=C/c1cc(C)cc([N+](=O)[O-])c1O)c1ccccc1 | inconclusive [activator, partial curve, poor fit]
COc1ccc(CC(=O)Nc2cc3oc4ccccc4c3cc2OC)cc1 | inconclusive [activator, full curve, poor fit]
CCc1ccc(CNC(=O)c2cc3c(C)nc4ccccc4c3o2)cc1 | inactive
CNc1ccccc1-n1ccc(-c2ccccc2)n1 | inconclusive [activator, full curve, poor fit]
O=C(NCc1ccccc1)c1n[nH]nc1-c1ccccc1O | inconclusive [activator, partial curve, poor fit]
COc1ccc(C2Nc3ccccc3C(=O)N2c2ccc(C)cc2)cc1Cn1nc(C)c([N+](=O)[O-])c1C (centres undefined) | inconclusive [activator, single point]
O=C(NCCCn1ccnc1)/C(=C\c1ccc(Br)cc1)NC(=O)c1ccccc1 | inactive
O=C1NCCCC2c3cc(O)c4ccccc4c3OC12N1CCCCC1 (centres undefined) | inactive
Cc1ccc(-c2noc(C3CCCN(C(=O)c4cccc(Cl)c4)C3)n2)o1 (centres undefined) | inconclusive [activator, full curve, poor fit]
CCOC(=O)c1c(C)oc2cc(Cl)c(O)c(CN(C)C)c12 | inconclusive [activator, partial curve, poor fit]

SMILES | Potency
O=C1CC(N2CCSCC2)C(=O)N1c1ccc(Br)cc1 (centres undefined) | inconclusive [activator, single point]
COc1ccc(N2CCN(Cc3cc(=O)oc4cc(-c5ccccc5)c(O)cc34)CC2)cc1 | inactive
CN1CCN(C(=O)/C=C/c2ccc([N+](=O)[O-])o2)CC1 | inconclusive [activator, partial curve, poor fit]
COc1ccc(Nc2oc(COc3cccc(C)c3)nc2C#N)cc1 | inconclusive [activator, partial curve, poor fit]
Cc1ccc(N/N=C/c2cccnc2)cc1 | inactive
COC(=O)/C(C#N)=C/c1ccc(OC(=O)c2ccccn2)cc1 | inconclusive [activator, partial curve, poor fit]
O=[N+]([O-])c1cccc(-n2cc3ccc([N+](=O)[O-])cc3n2)c1 | inconclusive [activator, full curve, poor fit]
CC(Nc1nc(-c2ccccc2)nc2ccccc12)c1ccccc1 (centres undefined) | inconclusive [activator, partial curve, poor fit]
CC(=O)Nc1cccc(C(=O)/C=C/c2ccc(Br)cc2)c1 | inactive
O=C(O)C1C2C=CC(O2)C1C(=O)NCc1ccc(Cl)cc1 (centres undefined) | inactive
Cn1ccnc1SCc1cn2ccccc2n1 | inconclusive [activator, full curve, poor fit]
O=C(OCCN1CCOCC1)c1ccccc1 | inconclusive [activator, single point]
COc1cccc(C(=O)NN/C(C)=C/C(=O)C(F)(F)C(F)(F)C(F)(F)F)c1 | inconclusive [activator, partial curve, poor fit]
O=C(N/N=C/c1ccccn1)c1ccc(Cl)c(Cl)c1 | inconclusive [activator, partial curve, poor fit]
Cc1ccc(/C(N)=N/OC(=O)CCc2ccccc2)cc1 | inconclusive [activator, partial curve, poor fit]
O=C1CNC(=S)N1c1nc(-c2ccccc2)cs1 | active: 10 µM
Cc1cc(C)c(S(=O)(=O)N2CCN(C)CC2)c(C)c1 | inactive
C/C(=N\NC(=O)C(c1ccccc1)c1ccccc1)c1ccc(O)cc1 | inconclusive [activator, single point]
Nc1nonc1C(=O)N/N=C/c1cccc([N+](=O)[O-])c1 | inconclusive [activator, single point]
Fc1cccc(F)c1CSc1nc2ccccc2[nH]1 | inconclusive [activator, partial curve, poor fit]
O=[N+]([O-])c1ccn(-c2nc(-c3cccs3)cc(C(F)(F)F)n2)n1 | inactive
COc1ccc(CNC(=O)Cc2nn(C)c(=O)c3ccccc23)cc1 | inactive
COc1ccc([C@H]2CC(=O)C=C(/C=C/c3ccccc3)C2)cc1 | inconclusive [activator, partial curve, poor fit]

SMILES | Potency
NC(=O)CSc1nc(O)cc(=O)n1-c1ccccc1 | inconclusive [activator, single point]
C=C(C)n1c(=O)n(Cc2ccccc2C)c2ccccc21 | inactive
Cc1cccc(-c2nnc(-c3ccc(N)cc3)o2)c1 | inconclusive [activator, partial curve, poor fit]
COCCN=C1NN=C(c2ccc(C)c([N+](=O)[O-])c2)CS1 | inconclusive [activator, partial curve, poor fit]
c1ccc(-c2nc(NCc3ccco3)c3ccccc3n2)nc1 | inactive
COc1ccc(C(=O)O/N=C(/c2ccccc2)c2ccncc2)cc1 | inconclusive [activator, partial curve, poor fit]
COc1ccc(-c2nc(CN3CCN(c4ccccc4OC)CC3)c(C)o2)cc1 | inactive
CCCOc1ccc(/C=N/NC(=O)CSc2ccccn2)cc1OC | inconclusive [activator, single point]
COc1ccc(-c2cnnc(N/N=C/c3ccc(O)c(OC)c3)n2)cc1 | inconclusive [activator, full curve, poor fit]
O=C(COC(=O)c1cc[n+]([O-])cc1)Nc1ccc(Cl)c(C(F)(F)F)c1 | inactive
Cc1ccccc1NC(=O)C1CCCN1S(=O)(=O)c1ccccc1C(F)(F)F (centres undefined) | inactive
O=C(NC1CCCCC1)c1ccc(-c2ccccc2F)o1 | inconclusive [activator, partial curve, poor fit]
CCN(CC)c1ccc(NC(=S)Nc2ccc(F)cc2)cc1 | inconclusive [activator, partial curve, poor fit]
CC1CCCCN1C(=O)c1cc(-c2ccc3c(c2)OCO3)on1 (centres undefined) | inconclusive [activator, full curve, poor fit]
CCC(C)[C@H](NC(=O)OC(C)(C)C)C(=O)N/N=C/c1ccc2cc(OC)ccc2n1 (some centres undefined) | inactive
CC(=O)Nc1cccc(NC(=S)Nc2cccc3ccccc23)c1 | inconclusive [activator, partial curve, poor fit]
O=C1NC(c2ccncc2)Nc2sc3c(c21)CCCC3 (centres undefined) | inconclusive [activator, partial curve, poor fit]
COc1cccc(Nc2nc(-c3ccc(O)cc3)cs2)c1 | inconclusive [activator, single point]
CCN(Cc1ccc(O)cc1)CC1CCCN(CCc2cccc(F)c2)C1 (centres undefined) | inconclusive [activator, partial curve, poor fit]
COc1cc2c(cc1OC)CN(c1ccc([N+](=O)[O-])cc1Cl)CC2 | inactive
N#Cc1c2n(c3c(=O)[nH]cnc13)CCCC2 | inactive
CCSc1nc2c(sc3ccccc32)c(=O)n1C(C)C | inconclusive [activator, full curve, poor fit]
C/C(=N\NC(=O)c1cccc(N/N=C(\C)c2ccccc2)c1)c1ccccc1 | inconclusive [activator, full curve, poor fit]
